Reference: PubChem BioAssay AID624417 (National Center for Advancing Translational Sciences (NCATS), 2012)
Screen size: about 410,000 compounds; about 6,400 (1.6%) were called active. The shares of active, inactive and inconclusive entries below differ from those in the screen. Calls follow the shape of the dose curve; as a rule, active = well fitted inhibition curve with a large enough effect; inconclusive = small, poorly fitted or top-dose-only effect; inactive = no such curve, though single readings can be large or run the other way. No potency is given beside an inconclusive call; the fits are too rough.
% is scaled to controls: 0 for no effect and ±100 for the full control effect; potency is read from the fitted curve at half-maximal effect; tags tell the direction and shape of the fitted curve.
Also: nearly all actives have a fitted effect of over 55% in size.

Each molecule was assayed against Glucagon-like peptide 1 receptor (Homo sapiens) (UniProt P43220) (assay: qHTS of GLP-1 Receptor Inverse Agonists (Inhibition Mode)). Settings: HEK293 GLP-1R CRE-luciferase, luminescence, 24 h, GLP-1R form is constitutively active; activity change, negative = inhibition: at 38.3 µM (top of the series) unless noted.
Sequence of UniProt P43220 (P43220 whole entry, looked up): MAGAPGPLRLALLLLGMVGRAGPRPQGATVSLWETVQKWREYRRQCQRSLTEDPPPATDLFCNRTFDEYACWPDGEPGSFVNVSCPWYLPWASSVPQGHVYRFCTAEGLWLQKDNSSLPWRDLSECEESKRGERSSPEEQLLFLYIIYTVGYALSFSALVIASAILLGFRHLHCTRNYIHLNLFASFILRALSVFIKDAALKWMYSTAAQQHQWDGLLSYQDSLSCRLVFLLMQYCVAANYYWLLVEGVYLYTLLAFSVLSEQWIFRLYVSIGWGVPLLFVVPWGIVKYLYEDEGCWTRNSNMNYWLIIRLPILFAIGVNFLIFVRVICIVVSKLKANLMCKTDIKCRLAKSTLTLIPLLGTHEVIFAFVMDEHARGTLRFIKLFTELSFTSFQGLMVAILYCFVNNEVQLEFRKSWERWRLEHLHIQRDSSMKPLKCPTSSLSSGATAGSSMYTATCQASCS
Procedure, shortened: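 Inverse agonism was detected as reduced cAMP-driven luciferase luminescence after 24 h compound treatment. The cells were HEK293 clones expressing constitutively active human GLP-1R with the reporter. Reporter-only and GPR119 cell lines served as counterscreen controls.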
In the case of `Cc1cccc2c(=O)cc(C(F)(F)F)[nH]c12`, the Potency was inconclusive [inhibitor, single point]. `Cc1ccc(NC(=O)Nc2nc3c(s2)CCCCCC3)cc1C` was tested, and the Potency was inconclusive [inhibitor, partial curve, poor fit]. In the case of `Cc1cc(N2CCN(C(=O)Nc3ccc(F)cc3F)CC2)c2ccccc2n1`, the activity change, negative = inhibition was inconclusive: -34% [inhibitor]. For `COc1cc(Cl)c(C)cc1NC(=O)c1ccccc1NC(=O)CN1CCOCC1`, the Potency was inconclusive [inhibitor, partial curve]. In the case of `CN1CCN(CCCNC(=O)c2ccc(/C=C3\Oc4ccccc4N(Cc4ccc(Cl)cc4)C3=O)cc2)CC1`, the Potency was inconclusive [inhibitor, partial curve, poor fit]. With `COc1ccc(NC(=S)N(CCCN2CCCCC2)Cc2cccs2)cc1` the Potency was inconclusive [inhibitor, partial curve, poor fit]. For `CC(C)CC(=O)NC(Nc1ccc([N+](=O)[O-])cc1)C(Cl)(Cl)Cl` (configuration not stated), the Potency was inconclusive [inhibitor, single point]. `CCCCc1ccc(NC(=S)N2CCN(c3ccccn3)CC2)cc1` was tested, and the Potency was inconclusive [inhibitor, partial curve, poor fit]. For `CC(c1ccccc1C(O)(c1ccccc1)c1ccccc1)N(C)C` (configuration not stated), the Potency was inconclusive [inhibitor, single point]. `Cc1ccc(Nc2nc(N)nc(CN3CCN(Cc4ccccc4)CC3)n2)cc1Cl` was tested, and the Potency was inconclusive [inhibitor, single point]. In the case of `C/C(=C\C(=O)c1ccc(Cl)cc1)NCc1ccc2c(c1)OCO2`, the Potency was inconclusive [inhibitor, single point]. For `Cc1cccc(NC(=S)NNC(=O)c2ccc3c(c2)OCO3)c1`, the Potency was “inactive”. For `O=C(CSc1nc(=O)n(CCCN2CCOCC2)c2c1CCC2)Nc1cccc(F)c1`, the Potency was “inactive”. In the case of `N#Cc1ccccc1Sc1ccccc1C(=O)OCC(=O)NC12CC3CC(CC(C3)C1)C2`, the Potency was inconclusive [inhibitor, partial curve, poor fit]. For `COc1ccc(C(=O)/C=C/C(=O)N(CC(=O)NC2CCCCC2)Cc2ccccc2)c(O)c1`, the Potency was “inactive”. For `COc1cc(/C=N/NC(=S)Nc2cccc(S(=O)(=O)N(C)C)c2)ccc1O`, the Potency was inconclusive [inhibitor, partial curve, poor fit]. `O=C(Nc1cccc(-c2cccc(F)c2)c1)C1CCN(C2CCOCC2)CC1` was tested, and the Potency was inconclusive [inhibitor, single point].
